The values below come from article PMC4336329 (PLoS ONE, 2015).

About 2,200 (0.71%) of roughly 310,000 compounds showed an effect of 50% or more. The effect is printed as a negative number. The list shows a part of the results.

Sequence of human ether-à-go-go-related gene (hERG) potassium channel (Q12809 whole entry, looked up): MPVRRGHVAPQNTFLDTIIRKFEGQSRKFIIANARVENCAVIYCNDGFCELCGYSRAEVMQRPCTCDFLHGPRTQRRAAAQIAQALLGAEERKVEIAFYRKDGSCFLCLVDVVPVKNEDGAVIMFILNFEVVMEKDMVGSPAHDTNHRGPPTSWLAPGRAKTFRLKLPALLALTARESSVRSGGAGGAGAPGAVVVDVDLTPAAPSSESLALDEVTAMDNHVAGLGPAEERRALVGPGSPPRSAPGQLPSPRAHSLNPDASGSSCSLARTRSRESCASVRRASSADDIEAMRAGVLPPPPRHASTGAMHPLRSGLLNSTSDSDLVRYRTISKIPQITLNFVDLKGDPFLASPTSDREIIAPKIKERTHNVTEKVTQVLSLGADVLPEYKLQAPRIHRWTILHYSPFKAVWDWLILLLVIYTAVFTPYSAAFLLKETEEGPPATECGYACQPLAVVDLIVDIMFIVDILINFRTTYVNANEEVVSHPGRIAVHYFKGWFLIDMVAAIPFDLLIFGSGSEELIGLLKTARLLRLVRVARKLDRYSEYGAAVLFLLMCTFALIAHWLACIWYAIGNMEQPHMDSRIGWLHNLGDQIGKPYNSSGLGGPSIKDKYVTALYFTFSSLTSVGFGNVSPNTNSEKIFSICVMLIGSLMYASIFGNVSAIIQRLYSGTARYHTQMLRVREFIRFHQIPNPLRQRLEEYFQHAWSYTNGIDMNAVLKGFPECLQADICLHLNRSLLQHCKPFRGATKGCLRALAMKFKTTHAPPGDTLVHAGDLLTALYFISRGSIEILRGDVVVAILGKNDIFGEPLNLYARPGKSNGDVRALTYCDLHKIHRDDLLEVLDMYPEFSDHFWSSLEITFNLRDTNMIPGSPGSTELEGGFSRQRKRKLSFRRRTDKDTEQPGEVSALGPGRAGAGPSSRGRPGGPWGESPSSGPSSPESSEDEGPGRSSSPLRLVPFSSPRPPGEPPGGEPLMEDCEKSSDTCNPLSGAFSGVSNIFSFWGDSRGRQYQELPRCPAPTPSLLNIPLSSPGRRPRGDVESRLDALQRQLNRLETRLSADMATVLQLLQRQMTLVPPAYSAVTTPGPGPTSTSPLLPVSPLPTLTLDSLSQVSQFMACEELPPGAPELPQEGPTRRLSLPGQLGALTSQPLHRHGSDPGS

This test addresses human ether-à-go-go-related gene (hERG) potassium channel (human, UniProt Q12809). Briefly: primary screen, population patch clamp on CHO cells stably expressing hERG.
For `CC(=O)Nc1ccc(N2C(=O)CC(Sc3nc(C)cc(C)n3)C2=O)cc1` (stereo not drawn), the “hERG current change (%, negative = inhibition) at 1uM” value was found to be 12.4%. The same measure for `O=C(c1ccc(NS(=O)(=O)c2ccccc2)cc1)N1CCCC1`: 7.69%. As to `Cc1ccc(-c2cc(-c3ccccc3Cl)c(C#N)c(N)n2)o1`, the “hERG current change (%, negative = inhibition) at 1uM” value is 8.84%.

Turning to `S=c1[nH]ccn1-c1ccccc1Cl`, the “hERG current change (%, negative = inhibition) at 1uM” value was 16.8%. As for `COc1ccc2nc(C)cc(SCC(=O)OC(C)C)c2c1`, the “hERG current change (%, negative = inhibition) at 1uM” value was 18.6%.

`COc1cccc(C2=CC(c3ccc(OC)c(OC)c3)NC(=S)N2)c1` (stereo not drawn): the “hERG current change (%, negative = inhibition) at 1uM” value is recorded as 10.2%. The same measure for `CCCOC(=O)CSc1nc(N)c(C#N)c(CC)c1C#N`: 2.28%; for `COc1cc(N)c(Cl)cc1Cl`: 10.4%; for `COc1cccc(CNS(=O)(=O)c2ccc3c(c2)N(C(C)=O)CCS3)c1`: 6.26%.

Consider `O=C(COC(=O)C1CCCN1C(=O)c1cccs1)Nc1ccc2c(c1)OCO2` (stereo not drawn), for which the “hERG current change (%, negative = inhibition) at 1uM” value is reported as 2.68%. With `O=C(/C=C/c1ccco1)Nc1ccc(Cl)c(S(=O)(=O)N2CCOCC2)c1`, the “hERG current change (%, negative = inhibition) at 1uM” value was found to be 7.91%. The same measure for `Cc1c(C(=O)OCCOc2ccccc2)[nH]c2c1C(=O)CCC2`: 3.02%. With `COC(=O)c1ccc(NC(=O)CCN2C(=O)C3CC=CCC3C2=O)cc1` (stereo not drawn), the “hERG current change (%, negative = inhibition) at 1uM” value is 3.77%. On to `O=C(COC(=O)Cc1c[nH]c2ccccc12)NCCc1ccccc1`, for which the “hERG current change (%, negative = inhibition) at 1uM” value was found to be 8.04%. As for `Cc1nc2sc(-c3ccccc3)cc2c(=O)n1-n1cccc1`, the “hERG current change (%, negative = inhibition) at 1uM” value came to 7.64%. As to `Cc1ccc(NC(=S)NC(=O)C2CCCC2)cc1C`, the “hERG current change (%, negative = inhibition) at 1uM” value is reported as 13.3%. With `O=C1/C(=N\S(=O)(=O)c2cccs2)C([n+]2ccc(CCCc3ccccc3)cc2)=C([O-])c2ccccc21`, the “hERG current change (%, negative = inhibition) at 1uM” value is listed as -12.5%. The same measure for `COc1ccccc1C1CCN(Cc2cccc3ccccc23)CC1`: 2.31%; for `C=C1C(=O)C=C[C@]2(C)C[C@@H]3OC(=O)[C@](C)(O)[C@H]3C[C@@H]12`: 8.44%; for `CN(CCNC(=O)CCCOc1cc(=O)n(C)c2ccccc12)Cc1ccccc1`: 4.44%. The same measure for `COc1ccc(-n2cnc3cc(C(=O)N4CCC5(CC4)OCCO5)ccc32)cc1`: -2.2%. The same measure for `CCC(C)NC(=O)c1c(N)n(/N=C/c2cccnc2)c2nc3ccccc3nc12` (stereo not drawn): 12.2%. On to `O=C(NCC(=O)N(c1ccc2c(c1)OCO2)C(C(=O)NC1CCCC1)c1cccs1)c1ccco1` (stereo not drawn), for which the “hERG current change (%, negative = inhibition) at 1uM” value is on record as 5.66%.

With `CC(=O)C1=C(C)NC(SCC(N)=O)=C(C#N)C1c1ccco1` (stereo not drawn), the “hERG current change (%, negative = inhibition) at 1uM” value is on record as 18.3%. Turning to `CCOC(=O)c1cc2n(n1)C(C(F)(F)C(F)(F)F)CC(C)N2` (stereo not drawn), the “hERG current change (%, negative = inhibition) at 1uM” value amounted to 8.84%.

Regarding `CSCC[C@H](NC(=O)[C@@H]1Cc2ccccc2CN1)C(=O)Nc1cccc(C)c1`, the “hERG current change (%, negative = inhibition) at 1uM” value was -3.94%.

Regarding `Cc1ccc(N2CC(NC(=O)C3CC3)CC2=O)cc1` (stereo not drawn), the “hERG current change (%, negative = inhibition) at 1uM” value was -12.4%.

`COC(=O)C1=C(C(=O)OC)[C@@H]2N(Cc3ccccc3)c3ccccc3[C@@]23C[C@@H](C(=O)OC)N(C(=O)NC2CCCCC2)C3=N1`: the “hERG current change (%, negative = inhibition) at 1uM” value is 6.65%. The same measure for `Cc1ccc(C(=O)N/C(=C\c2cn(S(=O)(=O)N(C)C)c3ccccc23)C(=O)NCCCN2CCOCC2)cc1`: 6.78%; for `CCCS(=O)(=O)N1CCCC(C(=O)NCCN(C)Cc2ccccc2)C1` (stereo not drawn): 3.8%. For the compound `CCOc1ccc(-n2c(=O)[nH]cc(C(=O)Nc3ccc(OC)c(OC)c3)c2=O)cc1`, the “hERG current change (%, negative = inhibition) at 1uM” value stood at 12.5%. The same measure for `CCN1CCn2c3c(c4cccc(C)c42)CCCC31.Cl` (stereo not drawn): 6.92%; for `CCc1c(C)sc(NC(=O)OC)c1C(=O)N1CCCCC1`: 9.16%; for `COC(=O)[C@H](C)NC(=O)Nc1ccc(OC)cc1OC`: -2.62%. Take `COC(=O)c1ccccc1NC(=O)NCc1ccccn1`: the “hERG current change (%, negative = inhibition) at 1uM” value came to 4.2%. Consider `CSc1nc(Cl)cc(Nc2ccc(O)cc2)n1`, for which the “hERG current change (%, negative = inhibition) at 1uM” value was -3.88%. The same measure for `CC1Cc2ccccc2N1C(=O)c1ccc2nccnc2c1` (stereo not drawn): 3.72%; for `COc1ccc(CCNC(=S)Nc2ccc(C)cc2C)cc1`: 16.1%; for `O=C1C2ON(c3ccc(Br)cc3)C(c3cccnc3)C2C(=O)N1C1CCCCC1` (stereo not drawn): -6.05%.

`CCOc1cc(N2CCOCC2)c(OCC)cc1NC(=O)COC(=O)c1ccccc1C`: the “hERG current change (%, negative = inhibition) at 1uM” value is -16.2%. For `CCN(C(=O)CSc1nnc(-c2ccc(F)cc2)c2ccccc12)C1CCS(=O)(=O)C1` (stereo not drawn), the “hERG current change (%, negative = inhibition) at 1uM” value is -1.41%. The same measure for `CC(Sc1nnc(-c2ccncc2)n1-c1ccc(F)cc1)C(=O)NC1CC1` (stereo not drawn): 16.9%; for `O=C(c1ccsc1)N1CCCC(N2CCN(c3ccccc3F)CC2)C1` (stereo not drawn): 6.45%. In the case of `CC12CCC(=O)N1C(C(=O)Nc1nc3ccccc3s1)CS2` (stereo not drawn), the “hERG current change (%, negative = inhibition) at 1uM” value stood at 15.4%. As for `Cc1ccc(NC(=O)CSc2nc(C)c(Cc3ccccc3)c(=O)[nH]2)cc1C`, the “hERG current change (%, negative = inhibition) at 1uM” value turned out to be 11.4%. The same measure for `CC1CCc2nc(NC(=O)C3CC3)sc2C1` (stereo not drawn): 10.6%. Turning to `CC1(C)CC2CC(C)(CN2C(=O)c2cc(-c3ccccc3)on2)C1` (stereo not drawn), the “hERG current change (%, negative = inhibition) at 1uM” value turned out to be 6.81%.

Consider `COc1ccc(/C=C(\C#N)C(=O)c2cccn2C)cc1`, for which the “hERG current change (%, negative = inhibition) at 1uM” value is given as 13.8%. For `Cc1nc(NCCO)c2nnn(Cc3ccccc3F)c2n1`, the “hERG current change (%, negative = inhibition) at 1uM” value stood at 12.3%. The same measure for `Cc1cccc(N(CC(=O)NC2CCCCC2)C(=O)c2ccc(C)s2)c1`: 9.81%; for `O=c1nc(-c2ccccc2)n(-c2ccccc2)c2ncccc12`: 10.8%; for `COc1ccc(NC(=O)C2CCN(C(=O)c3ccco3)CC2)c(OC)c1`: 17.1%.

For `CC(CN1CCCCC1)OC(=O)c1ccc2c(c1)OCO2.Cl` (stereo not drawn), the “hERG current change (%, negative = inhibition) at 1uM” value is recorded as -12.4%. Regarding `COc1cccc(Oc2nc3ncn(Cc4ccccc4)c3c(=O)n2C)c1`, the “hERG current change (%, negative = inhibition) at 1uM” value worked out at 8.17%. The same measure for `COc1ccc(CCNS(=O)(=O)c2cc(/C=C/C(=O)O)ccc2C)cc1OC`: 7.76%. The same measure for `CCCCn1nc(C(=O)NCC(c2cccs2)N2CCOCC2)c2ccccc2c1=O` (stereo not drawn): 5.01%; for `CSC[C@H](NC(=O)COc1cc2c(c3oc(=O)c(C)c(C)c13)CCC(C)(C)O2)C(=O)O`: 11.2%.
